Data: PubChem BioAssay AID743279 (National Center for Advancing Translational Sciences (NCATS), 2014)
Screen size: about 360,000 compounds; about 17,000 (4.7%) were called active. Inconclusive means that the source gave no clear call. Such entries were picked first, then a sample of the others. No stated cut-off is given here; in the data, active means activity change below about -50%; inconclusive means mostly about -30% to -49%; inactive means weaker than that.

Assay: qHTS for Inhibitors of Inflammasome Signaling: IL-1-beta AlphaLISA Primary Screen
Details: THP-1 LPS/ATP IL-1B secretion, 16 h; at 57.5 µM, hits give low values
Summary of the method: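 THP-1 cells pretreated 1 hr with compounds (up to 57.5 uM final), then stimulated with LPS (250 ng/mL final) plus ATP (1.25 mM final); secreted IL-1B measured by AlphaLISA after 16 hr, decreased signal indicating inhibition.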
On the % scale 0 is the no-effect control and ±100 the full control effect.

SMILES | activity change
COc1ccc(N2C3=C(C(=O)CC(C)(C)C3)C(c3ccccc3OC)C3=C2CC(C)(C)CC3=O)cc1 | active: -85.5%
CC(=O)N1CCSc2ccc(S(=O)(=O)Nc3ccccc3C)cc21 | active: -57%
COc1cccc(-c2csc(NC3OC(=O)c4c3ccc(OC)c4OC)n2)c1 (stereo unspecified) | active: -92.7%
Cc1ccc(Sc2ccc(/C=C3/C(=O)NN(c4ccccc4)C3=O)o2)cc1 | inactive: -24.2%
O=C(Cc1cccc(NC(=O)C2CCCN(C(=O)c3ccccc3)C2)c1)Nc1cccc(C(=O)N2CCCCC2)c1 (stereo unspecified) | inactive: 5.34%
Cc1cc(NC(=O)COC(=O)c2cc([N+](=O)[O-])ccc2N2CCOCC2)ccc1Br | inconclusive: -32.2%
CC(=O)N1c2ccc(S(=O)(=O)N3CCCC(C(=O)Nc4cccc(Cl)c4)C3)cc2CC1C (stereo unspecified) | inconclusive: -45.5%
COc1ccc(CNC(=O)c2cccc3c2C(=O)N(Cc2cccnc2)C3)cc1 | inconclusive: -36.3%
COc1ccccc1N(Cc1ccccc1)S(=O)(=O)c1cc(C(=O)O)ccc1Cl | inactive: 28.5%
CCN(CC)c1nc(N)c2c(N)n(-c3ccccc3C)c(=S)c(C#N)c2c1C#N | inactive: 3.94%
CC(=O)n1cc(/C=N/NC(=O)c2ccccc2O)c2ccccc21 | inconclusive: -30.4%
CCC1(C)CC(CC(=O)O)(c2ccccc2OC)CCO1 (stereo unspecified) | inactive: 23.7%
COc1ccc(OC)c(NC(=O)c2cccc(NC(=O)c3ccccc3)c2)c1 | active: -56.8%
CCOC(=O)C1CCN(C(=O)CN(c2ccc3c(c2)OCCO3)S(=O)(=O)c2ccccc2)CC1 | inactive: -5.55%
COc1ccc2c(c1)oc(=O)c1cc(OC)ccc12 | inconclusive: -34.9%
CN1CCC2CC1c1cc(-c3ccc(C(F)(F)F)cc3)ccc12 (stereo unspecified) | inconclusive: -30.8%
COc1ccc(CSc2ccc(-c3nc4ccccn4c3NCc3ccccc3)cc2OC)cc1 | inconclusive: -36.6%
O=C(Nc1cccc(-c2cccc(F)c2)c1)C1CCN(C2CCC2)CC1 | inactive: -13.9%
CCOC(=O)N/N=C/c1cn(Cc2ccccc2Cl)c2ccccc12 | inconclusive: -36.7%
COc1cccc(NC(=O)CSc2nc(=O)n(CCN(C)C)c3c2CCCC3)c1 | inconclusive: -37.2%
O=C1NC(Cc2ccc(O)cc2)c2nc3cc(F)ccc3c(=O)n2-c2cc3ccccc3cc21 (stereo unspecified) | inconclusive: -49.4%
C/C(=N\N=C(/N)SC1CC(=O)N(c2ccc(Cl)c(Cl)c2)C1=O)c1cccs1 (stereo unspecified) | inconclusive: -48.5%
N#Cc1ccccc1OCC(=O)Nc1nc(-c2ccccn2)cs1 | inactive: 82.4%
COc1ccccc1-c1c(C)nn2c(N)c(-c3ccccc3)cnc12 | active: -74%
CCN(CC)CCNC(=S)Nc1ccc2nc(N3CCN(CC)CC3)cc(C)c2c1 | active: -58.6%
Cc1ccc(C(=O)OCC(=O)NC2CCCC2)cc1 | inactive: -1.73%

SMILES | activity change
CC(C)(CNC(=O)c1cc([N+](=O)[O-])ccc1N1CCC(Cc2ccccc2)CC1)N1CCOCC1 | active: -56.6%
O=C(CSc1ccsc1[N+](=O)[O-])NCc1ccccc1 | inconclusive: -45%
C[C@@H]1CN([C@H](C)CO)C(=O)c2cc(NC(=O)C3CCCCC3)ccc2O[C@@H]1CN(C)Cc1ccc(C(F)(F)F)cc1 | inconclusive: -48.4%
O=C1C=CC(=O)N1N(c1ccccc1)c1ccccc1 | inconclusive: -44.4%
O=C(CSc1nnc(CCCN2C(=O)c3cccc4cccc(c34)C2=O)n1-c1ccccc1)N1CCN(CCO)CC1 | inconclusive: -37.1%
C[C@H](NC(=O)c1[nH]cnc1C(=O)Nc1ccc(CNC(=O)OC(C)(C)C)cc1)C(=O)OC(C)(C)C | inconclusive: -34.7%
COC(=O)[C@@]12CCCCN1[C@H](c1ccc(-c3ccc(Cl)c(Cl)c3)cc1)[C@H]1C(=O)N(C)C(=O)[C@H]12 | inactive: 0%
CSc1ccc(-c2nnn(Cc3ccc(Br)cc3)n2)cc1 | inconclusive: -38.9%
Oc1cccc(C(O)CNCc2ccc(OCc3ccc(Cl)cc3Cl)cc2)c1 (stereo unspecified) | active: -90.6%
CCOc1ccc(S(=O)(=O)N2CCN(C(=O)c3ccc(Cl)c(S(=O)(=O)N4CCOCC4)c3)CC2)cc1 | inactive: -13.4%
COc1ccc(C(C)=O)cc1CC1(C)C(=O)Nc2ccc(-c3cccc(C(F)(F)F)c3)cc21 (stereo unspecified) | inconclusive: -45.6%
O=C(C1=C[C@@H](c2csc3ccccc23)C[C@@H](OCc2ccc(CO)cc2)O1)N1CCN(Cc2ccccc2)CC1 | active: -59.6%
O=C(c1ccc(N2CCCC2)c([N+](=O)[O-])c1)N1CCN(S(=O)(=O)c2ccccc2)CC1 | inconclusive: -45.1%
COc1cc2c(cc1OC)CN(C(=O)c1nn(Cc3ccccc3)c(=O)c3ccccc13)CC2 | inconclusive: -44.6%
Cc1cccc(C(=O)Nc2scc(-c3ccc(Br)cc3)c2C(=O)O)c1 | inconclusive: -45.4%
COCCCNC(=O)C[C@H]1C[C@H](C(=O)N2CCCCC2)[C@@]2(CCc3ccccc3)c3[nH]c4cc(-c5ccco5)ccc4c3CCN2C1=O | inconclusive: -48.8%
O=C(COc1cccc(C(F)(F)F)c1)Nc1ccc(S(=O)(=O)N2CCCCC2)cc1 | inconclusive: -30.3%
O=C(CCCN1C(=O)/C(=C/c2ccccc2Cl)SC1=S)Nc1cccnc1 | inconclusive: -31.7%
CCOC(=O)c1ccc(NC(=S)Nc2cccc(N)n2)cc1 | inconclusive: -45.8%
Cc1ccc2c(c1)N(C(=O)CCC(=O)N1CCCCC1)CCO2 | inactive: 5.85%
Cc1cc(C)c2nc(N3CCC(C(=O)NCC4CCCO4)CC3)sc2c1 (stereo unspecified) | inactive: 8.83%
Oc1c(CN2CCCCC2)cc(COCc2ccccc2)c2cccnc12 | active: -105%
COc1ccccc1C(=O)NCCC(=O)N1CCN(S(=O)(=O)c2ccccc2C(F)(F)F)CC1 | inactive: -3.96%
Cc1ccc(CNC(=O)/C=C/c2cccs2)cc1 | inactive: 13%
COc1ccc(CCNCC(O)COc2ccc(Cl)cc2)cc1OC (stereo unspecified) | inconclusive: -36.9%
